Laboratory results published in patent US20230416363A1 (KADMON, published 2023).

Tests used:
hPD-1-Fc [1] = target: T1, hPD-1-Fc (human, UniProt Q15116 in part); experiment: ELISA competition assay, PD-L1 binding to PD-1
T1 construct: domain: IgV domain; also called human PD-1-Fc; not shown: human IgG1 Fc

hPD-1-Fc [2] = target: T1, hPD-1-Fc; experiment: ELISA competition assay, PD-L2 binding to PD-1
T1 sequence (Q15116 25-167 limits assumed): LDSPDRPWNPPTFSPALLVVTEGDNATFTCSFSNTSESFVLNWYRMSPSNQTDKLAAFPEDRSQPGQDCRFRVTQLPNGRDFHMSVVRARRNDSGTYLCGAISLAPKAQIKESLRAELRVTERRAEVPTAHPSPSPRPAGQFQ

B1: N65S-1N-38B2/IL-15 (other)
light: DIQMTQSPSSLSASVGDRVTITCRASESISSWLAWYQQKPGKAPKLLIYDASSLESGVPSRFSGSGSGTDFTLTISSLQPEDFATYYCQQGDSFPFTFGQGTKLEIKRTVAAPSVFIFPPSDEQLKSGTASVVCLLNNFYPREAKVQWKVDNALQSGNSQESVTEQDSKDSTYSLSSTLTLSKADYEKHKVYACEVTHQGLSSPVTKSFNRGEC
heavy 1: EVQLLESGGGLVQPGGSLRLSCAASGFTFSSYWMSWVRQAPGKGLEWVSAISGSGGSTYYADSVKGRFTISRDNSKNTLYLQMNSLRAEDTAVYYCASSPLQWVDVWGQGTTVTVSSASTKGPSVFPLAPSSKSTSGGTAALGCLVKDYFPEPVTVSWNSGALTSGVHTFPAVLQSSGLYSLSSVVTVPSSSLGTQTYICNVNHKPSNTKVDKRVEPKSCDKTHTCPPCPAPEAAGGPSVFLFPPKPKDTLMISRTPEVTCVVVDVSHEDPEVKFNWYVDGVEVHNAKTKPREEQYNSTYRVVSVLTVLHQDWLNGKEYKCKVSNKALGAPIEKTISKAKGQPREPQVYVLPPSREEMTKNQVSLLCLVKGFYPSDIAVEWESNGQPENNYLTWPPVLDSDGSFFLYSKLTVDKSRWQQGNVFSCSVMHEALHNHYTQKSLSLSPGK
heavy 2: ITCPPPMSVEHADIWVKSYSLYSRERYICNSGFKRKAGTSSLTECVLNKATNVAHWTTPSLKCIRDPALVHQRPAPPSGGSGGGGSGGGSGGGGSLQ[… about 120 residues with changes …]GGGGSGGGGSGGGGSGGGGSGGGGSGGGGSEVQLLESGGGLVQPGGSLRLSCAASGFTFSSYWMSWVRQAPGKGLEWVSAISGSGGSTYYADSVKGRFTISRDNSKNTLYLQMNSLRAEDTAVYYCASSPLQWVDVWGQGTTVTVSSASTKGPSVFPLAPSSKSTSGGTAALGCLVKDYFPEPVTVSWNSGALTSGVHTFPAVLQSSGLYSLSSVVTVPSSSLGTQTYICNVNHKPSNTKVDKRVEPKSCDKTHTCPPCPAPEAAGGPSVFLFPPKPKDTLMISRTPEVTCVVVDVSHEDPEVKFNWYVDGVEVHNAKTKPREEQYNSTYRVVSVLTVLHQDWLNGKEYKCKVSNKALGAPIEKTISKAKGQPREPQVYVYPPSREEMTKNQVSLTCLVKGFYPSDIAVEWESNGQPENNYKTTPPVLDSDGSFALVSKLTVDKSRWQQGNVFSCSVMHEALHNHYTQKSLSLSPGK
notes: antibody-cytokine fusion; also called 65S_1N_38B2-hSD15; 1N-65S-hSD15-38B2
- IC50 (read off the curve) (hPD-1-Fc [1]): ~3 nM
- IC50 (read off the curve) (hPD-1-Fc [2]): ~3 nM
